The results in this text go back to publication PMC4336329 (PLoS ONE, 2015).

Screen size: about 310,000 compounds; about 2,200 (0.71%) showed an effect of 50% or more. Effects have a minus sign here. This is one part of the list. Where a SMILES comes first, the peptide text is derived from it. [ ]: non-standard residue; d: D form. The star is where a group is joined. PhAc = O=C(Cc1ccccc1)*

In this assay the target is human ether-à-go-go-related gene (hERG) potassium channel (human, UniProt Q12809). In words: primary screen, population patch clamp on CHO cells stably expressing hERG.
Sequence of human ether-à-go-go-related gene (hERG) potassium channel (Q12809 whole entry, looked up): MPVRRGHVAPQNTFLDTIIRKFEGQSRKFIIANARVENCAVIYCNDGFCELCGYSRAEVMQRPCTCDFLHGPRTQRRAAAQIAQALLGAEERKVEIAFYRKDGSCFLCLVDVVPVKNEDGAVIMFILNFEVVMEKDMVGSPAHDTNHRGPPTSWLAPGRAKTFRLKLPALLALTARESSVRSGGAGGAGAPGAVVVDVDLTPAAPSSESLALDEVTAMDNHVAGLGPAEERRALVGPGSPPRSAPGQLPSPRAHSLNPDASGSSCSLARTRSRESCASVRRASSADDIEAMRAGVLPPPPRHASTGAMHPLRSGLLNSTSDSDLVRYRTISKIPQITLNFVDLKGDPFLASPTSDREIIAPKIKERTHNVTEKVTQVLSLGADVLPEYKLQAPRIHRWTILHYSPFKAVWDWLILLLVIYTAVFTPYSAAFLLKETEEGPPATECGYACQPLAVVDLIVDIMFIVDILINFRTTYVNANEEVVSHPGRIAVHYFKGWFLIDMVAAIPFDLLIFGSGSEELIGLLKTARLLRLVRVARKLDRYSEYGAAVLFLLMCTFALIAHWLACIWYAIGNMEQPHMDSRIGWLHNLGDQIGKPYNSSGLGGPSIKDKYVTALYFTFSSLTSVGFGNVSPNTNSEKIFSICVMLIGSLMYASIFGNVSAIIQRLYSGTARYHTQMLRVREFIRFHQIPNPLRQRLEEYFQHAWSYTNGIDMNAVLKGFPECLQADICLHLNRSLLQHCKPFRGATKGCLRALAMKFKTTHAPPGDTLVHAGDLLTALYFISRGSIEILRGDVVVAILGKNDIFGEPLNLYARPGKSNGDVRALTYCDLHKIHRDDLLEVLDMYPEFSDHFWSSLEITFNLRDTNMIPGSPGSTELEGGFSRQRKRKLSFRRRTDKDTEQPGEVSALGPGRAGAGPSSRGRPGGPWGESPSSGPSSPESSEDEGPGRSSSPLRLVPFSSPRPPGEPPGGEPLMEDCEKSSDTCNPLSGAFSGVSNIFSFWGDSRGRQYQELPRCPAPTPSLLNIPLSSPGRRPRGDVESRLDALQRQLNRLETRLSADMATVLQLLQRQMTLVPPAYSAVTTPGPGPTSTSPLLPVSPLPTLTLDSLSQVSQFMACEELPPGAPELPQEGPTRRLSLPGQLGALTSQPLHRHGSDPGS
Consider `Cc1cccc(NC(=O)c2ccccc2C(=O)Nc2cccc(C)c2)c1`, for which the “hERG current change (%, negative = inhibition) at 1uM” value is listed as 4.17%.
The figure for `CC1=C([N+](=O)[O-])C(c2ccc3c(c2)OCO3)N(C)C(=O)N1C` (stereo not shown) is 9.01%; for `CCOC(=O)C1=C(N)OC2=C(C(=O)CC(C)(C)C2)C1c1ccc(C)s1` (stereo not shown) it is -8.76%; for `O=C(COc1ccc(F)cc1Br)NCc1ccccn1` it is 2.26%.
The figure for `COc1cccc(OC)c1C(=O)NC(=S)NCc1ccccc1` is 15.4%; for `O=C(Nc1cccc(S(=O)(=O)NC2=NCCC2)c1)c1ccc(=O)[nH]c1` it is 11.4%; for `Cc1ccc(C(=O)N/C(=C\c2ccco2)C(=O)NCCc2c[nH]c3ccccc23)cc1` it is -12.2%.
The figure for `CC(C)Oc1ccccc1OCCCOc1cccc2cccnc12` is 4.95%; for `CC(=O)Nc1cccc(NC(=O)CSc2nccn2Cc2ccccc2)c1` it is 14.4%.
For `COc1ccc(CN2CCC(n3nccc3NC(=O)C3CC3)CC2)cc1O`, the “hERG current change (%, negative = inhibition) at 1uM” value is on record as -18.7%.
For `O=S(=O)(NCCSc1ccccc1)c1cccs1`, the “hERG current change (%, negative = inhibition) at 1uM” value is reported as 0.375%.
The result for `COc1ccc(C(NC(=O)CC(C)C)NC(=O)CC(C)C)cc1OC` reads -0.242%; that for `C=CCCC(=O)NC1CCCc2c1cnn2-c1ccccc1F` (stereo not shown), 18.1%; that for `O=C(O)c1cccc(S(=O)(=O)NCc2cccs2)c1`, 2.21%.
On to `COC1=C(Nc2ccccc2OC)C(=O)c2ccccc2C1=O`, for which the “hERG current change (%, negative = inhibition) at 1uM” value came to 13.4%.
The result for `O=C(Oc1ccc2ccccc2c1Cl)N1CCCCCC1` reads 16.9%; that for `O=Cc1ccnc(-c2ccc(OC(=O)c3ccco3)cc2)n1`, 5.69%; that for `COc1ccc(N(CC(=O)Nc2ccc(Cl)cc2)S(=O)(=O)c2c(C)n[nH]c2C)cc1`, 6.63%.
The result for `O=C(O)CCNS(=O)(=O)c1ccccc1C(F)(F)F` reads 14%; that for `CCOC(=O)N(NC(=O)C(O)(CC(C)C)CC(C)C)c1ccccc1`, 6.37%; that for `O=C(Cn1c(=O)oc2ccccc21)Nc1ccc(F)cc1`, 15.5%.
In the case of `Cc1cccc(C(=O)N[C@H](C(=O)Nc2ccc(C)c(S(=O)(=O)N(C)C)c2)C(C)C)c1`, the “hERG current change (%, negative = inhibition) at 1uM” value is 21.2%.
The figure for `COc1ccc(/C=N\NC(=S)SCN2C(=O)C3CCC(C)(C2=O)C3(C)C)cc1` (stereo not shown) is 16.6%; for `O=C(Nc1cccc(-c2csc(Nc3cccc(C(F)(F)F)c3)n2)c1)c1ccccc1` it is -4.15%.
The figure for `COc1ccc(C(=O)Cn2nnc(-c3cccs3)n2)cc1` is 3.41%.
The figure for `CC(C)CCn1nnnc1C(c1ccc(N(C)C)cc1)N1CCN(C(=O)c2ccco2)CC1` (stereo not shown) is -3.51%; for `CN(CC#CCN1CCCC1)C(=O)c1cccc(Cl)c1` it is 7.28%.
`O=C(c1cc(-c2ccccc2Cl)nc2ccccc12)N1CCC1`: the “hERG current change (%, negative = inhibition) at 1uM” value is given as 9.92%.
The result for `S=c1[nH]nc(Cc2c[nH]c3ccccc23)o1` reads 0.407%; that for `COc1ccc(S(=O)(=O)Nc2nc3ccccc3s2)cc1`, 11.6%; that for `CCN(CC)CCNc1ncnc2c1sc1nc(N3CCOCC3)c3c(c12)CC(C)(C)SC3`, -17.5%.
As for `CC(=O)Nc1ccc(S(=O)(=O)N2CCN(Cc3nc4sc(C)c(C)c4c(=O)[nH]3)CC2)cc1`, the “hERG current change (%, negative = inhibition) at 1uM” value is 10.1%.
In the case of `Cc1[nH]nc2c1C(CCc1ccccc1)C(C#N)=C(N)O2` (stereo not shown), the “hERG current change (%, negative = inhibition) at 1uM” value is -1.73%.
The result for `Cc1ccc(C(=O)N/N=C2\SCC(=O)N2c2cc(C)ccc2C)cc1` reads 7.94%; that for `CCOc1ccc(-c2noc(CCC(=O)NC3CCCC3)n2)cc1OC`, 12.8%.
The result for `COc1ccc(P(=O)(COc2ccc([N+](=O)[O-])cc2)c2ccc(OC)cc2)cc1` reads -30.8%.
In the case of `O=C(/C=C/Nc1ccc(F)cc1)c1ccc(Br)cc1`, the “hERG current change (%, negative = inhibition) at 1uM” value came out at 11%.
The figure for `O=C(Nc1cccc(C(=O)N2CCOCC2)c1)c1ccccc1Br` is 13.2%; for `CC(C)Oc1ccc(C(=O)N2CCN(C(=O)c3ccco3)CC2)cc1` it is 5.43%.
The result for `Cc1cc(C)c(C#N)c(N2CCOCC2)n1` reads 11.5%; that for `O=C(NS(=O)(=O)Oc1ccc(F)c(Cl)c1)OC[C@@H]1CCCN2CCCCC12` (stereo partly shown), 9.28%; that for `CS(=O)(=O)N(CC(=O)N1CCN(Cc2ccc3c(c2)OCO3)CC1)c1ccc2c(c1)OCO2`, -28%.
The figure for `CCc1nnc(NS(=O)(=O)c2ccc(N=CC3=C(O)CC(C)(C)CC3=O)cc2)s1` is 19.9%.
`COc1ccc(NC(=O)CSc2n[nH]c(-c3ccccn3)n2)cc1`: the “hERG current change (%, negative = inhibition) at 1uM” value came to 13%.
The result for `O=C(N/N=C/c1ccccn1)c1ccncc1` reads 14.2%.
The result for `O=C(CCN1C(=O)/C(=C/c2ccccc2Cl)SC1=S)NC1CCCC1` reads 8.37%; that for `Cc1cc(/C=C2\C(=O)NC(=O)N(c3ccc(Cl)cc3)C2=O)c(C)n1C`, 17.3%; that for `CCn1c(SCC(=O)NCCOC)nc2sc3c(c2c1=O)CCCC3`, 10.1%.
The result for `C#CCOCCOCCOCCNc1nc(N2CCN(C(=O)[C@H](CCC(=O)O)n3cc(C(N)CO)nn3)CC2)nc(N2CCN(C(=O)[C@H](Cc3ccc(O)cc3)n3cc(C(N)CC(C)C)nn3)CC2)n1.Cl` (stereo partly shown) reads 9.46%; that for `CSc1nc(NC(C)(C)C)nc(N2CCOCC2)n1`, 11.6%.
`CCOC(=O)/C(=N/Nc1ccc(C)cc1)S(=O)(=O)c1ccc(Cl)cc1`: the “hERG current change (%, negative = inhibition) at 1uM” value is reported as 7.55%.
`CC(=C1C(=O)c2ccccc2C1=O)N1CCN(CCN=CC2=C(O)CC(C)(C)CC2=O)CC1`: the “hERG current change (%, negative = inhibition) at 1uM” value is -5.68%.
The result for `Nc1oc2ccc(F)cc2c(=O)c1C=O` reads 15.3%.
As to `O=C(O)c1ccccc1-c1ccccc1C(=O)Nc1nccs1`, the “hERG current change (%, negative = inhibition) at 1uM” value is 19.4%.
The figure for `Cc1ccc(COc2ccc(C(=O)NN)cc2)cc1` is 17.8%; for `CCOC(=O)C(=O)NCc1ccc(/C=C2/N=C(C)C(C(=O)OCC)=C2O)o1` it is 9.4%.
The figure for `CCC(=O)Nc1nc2ccccc2n1Cc1ccc(Cl)cc1` is 12.3%.
Turning to `O=C(O)CC1(CC(=O)Nc2cccc(C(=O)O)c2)CCCC1`, the “hERG current change (%, negative = inhibition) at 1uM” value was found to be 22.2%.
The figure for `CC(=O)NC1C(=O)N(CCN2CCOCC2)c2ccc(Cl)cc21.Cl` (stereo not shown) is 11.9%.
The figure for `COc1ccccc1N=C(C)C1=C(O)CSC1=O` is 12.1%; for `CCOC(=O)C1(Cc2ccc(OC)cc2)CCN(C(=O)CN2CCN(CC)CC2)CC1` it is -15.4%.
The figure for `COC(=O)c1nc2n(n1)C(c1cccc(Cl)c1)C1=C(CCCC1=O)N2` (stereo not shown) is 10.5%; for `CCCCCC(=O)Nc1cccc(-c2nc3ncccc3o2)c1` it is 0.93%; for `CC1=C(C(=O)OCC(C)C)C(c2cc3c(cc2Br)OCO3)NC(=O)N1C` (stereo not shown) it is 3.4%.
As for `CC(C)(C)NC(=O)Cn1c(=O)n(CC(=O)NC(C)(C)C)c2ccccc21`, the “hERG current change (%, negative = inhibition) at 1uM” value is 6.35%.
The figure for `Cc1ccc(CNC(=O)CSc2nc3n[nH]c(C)c3c(=N)n2-c2cccc(C)c2)cc1` is -4.56%; for `COC(=O)CN=Cc1c(O)n(-c2ccc(Cl)cn2)c(=O)c2ccccc12` it is 7.5%.
The figure for `CN(CC(=O)NCCc1ccc(F)cc1)Cc1ccccc1` is 7.06%.
The result for `COCCNC(=S)N1CCN(Cc2cccc(OC)c2)CC1` reads 11.9%; that for `COc1ccc(N2C(=O)C3C4C=CC(CC4)C3C2=O)c([N+](=O)[O-])c1` (stereo not shown), -0.878%.
With `CCCOC(=O)Nc1ccc(S(=O)(=O)Nn2cnnc2)cc1`, the “hERG current change (%, negative = inhibition) at 1uM” value amounted to 14.1%.
The figure for `Cc1ccc(C(=O)N2CCN(c3ccc([N+](=O)[O-])c(N4CCOCC4)c3)CC2)cc1` is -12.1%; for `COC(=O)C1NC(=O)N2C(C(=O)OC)C(C)(C)S[C@H]12` (stereo partly shown) it is 19.7%; for `O=C(O)C(=O)O.O=C(c1cccnc1)N1CCN(Cc2ccccc2Br)CC1` it is 14.4%.
In the case of `CCOc1ccc(C2CC(c3ccccc3)Nc3nc(N)nn32)cc1` (stereo not shown), the “hERG current change (%, negative = inhibition) at 1uM” value is given as 1.33%.
With `CC(C)(C)OC(=O)N1CCC[C@@H]1C(=O)N1CCC(C(=O)O)CC1`, the “hERG current change (%, negative = inhibition) at 1uM” value is reported as 16.5%.
For the compound `CS(=O)(=O)c1ccc2nc(NC(=O)c3ccc(N4CCCC4=O)cc3)sc2c1`, the “hERG current change (%, negative = inhibition) at 1uM” value amounted to 5.46%.
The figure for `CC(C)C[C@@H](NC(=O)[C@H]1CCCN1C(=O)Cc1ccccc1)C(N)=O` (PhAc-[dP]-[dL]-NH2) is 24%; for `CSc1nsc(SC)c1C(N)=O` it is 12%.
The figure for `O=C(O)COc1ccccc1/C=C1\C(=O)Nc2ccc(Br)cc21` is 9.26%.
On to `CCOC(=O)C1CCN(c2ncnc3nc[nH]c23)CC1`, for which the “hERG current change (%, negative = inhibition) at 1uM” value is recorded as -1.39%.
The figure for `CCOc1ccc(C(=O)Nc2ccccc2N2CCN(C(=O)c3ccccc3)CC2)cc1[N+](=O)[O-]` is -84%; for `CCc1nc(SCc2ccc(OC)c(Br)c2)n[nH]1` it is 0.314%; for `CCOC(=O)c1c(NC(=O)c2ccc(S(=O)(=O)N(C)CC3CCCO3)cc2)sc2c1CCN(C)C2.Cl` (stereo not shown) it is 11.3%.
The figure for `CCOC(=O)Cc1c(C)nc2c(-c3cccc(Br)c3)cnn2c1C` is 11.2%; for `Cc1ccc(Nc2nnc(SCC(=O)NC3CC3)s2)cc1` it is 5.38%.
The result for `COC(=O)C1=C(C)N(Cc2ccc(C)cc2)C(=O)/C1=C\c1cc(OC)c(OC)c(OC)c1` reads 14.9%.
On to `CC(=O)Nc1ccc(S(=O)(=O)N(C)c2ccc(OCC(=O)OCC(=O)NCc3ccco3)cc2)cc1`, for which the “hERG current change (%, negative = inhibition) at 1uM” value is listed as 7.18%.
